According to the supplement of paper PMC11417369:
The other results are listed elsewhere or left out.

Tested on: PfAP2-HC AP2 domain (GST-tagged)
Assay: gcPBM binding intensity (ln(normalized median fluorescence intensity)); higher = stronger DNA binding
In short: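 GST-tagged P. falciparum DNA-binding domains produced in E. coli were incubated for 1 h on an Agilent 4 × 180k array of primer-extended double-stranded 36-bp intergenic genomic probes with negative controls. Binding intensity is the highest Masliner-normalised natural-log median intensity across replicate spots of either probe orientation, with bound protein detected by Alexa488 anti-GST antibody at 488 nm.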

Row | Sequence | gcPBM binding intensity (ln)
1 | GCCCCCTAAAAAATTACACACGAAAAAAATGAATTT [CACACA_site9128] | 9.95
2 | TAAGTATAAAAAAATAGTACAATTATGAAATATCGT [XGTACX_site2529] | 9.73
3 | GGTCTAACAACATGCGCACACACATGAATATTCATA [CACACA_site1539] | 10.1
4 | TTTAACAAGTTAAACACACATACATATATACATATA [CACACA_site2536] | 9.71
5 | AACAAAATTGAAGGAACACACATACATATTTATATA [CACACA_site6227] | 10.1
6 | AAAAAATTAGATTATGCACACACACTAATAAATAAT [CACACA_site8604] | 10.2
7 | TTTATTTAAGAAAAATGTACAGGTTCATTTCATAAT [XGTACX_site27] | 9.36
8 | CATATAAATACATGCACACAAAAATATCAATACATT [CACACA_site2392] | 9.95
9 | TATAAAAATATATATATATATATATATATAATATGT [TGCATGCA_negctrl_site85] | 9.52
10 | TTAAAAAAAAAACACACACACATACCCATATATATA [CACACA_site5768] | 10.4
11 | ATTTGTTCCTTGGGAGTTTACTTTTTTTTAATTTTA [CACACA_negctrl_site638] | 9.73
12 | TTCTTTTTAATTAATACACACACACCCATATATATA [CACACA_site8719] | 10.2
13 | ACATGTGAACATTCAATGCACACGATGTAATTATAC [CACACA_site14] | 9.84
14 | ATGTGTTAAAAATGCACACAAAAAAATATACATATA [CACACA_site295] | 10.2
15 | ATATTATATATATACACACACACATGCATGCACCTA [CACACA_site106] | 10.7
16 | TTTTTTAAATATATGGTGCATAGAAAGATATTATAC [GTGCAC_site9984] | 9.47
17 | TTTAAAAAAAGCAGTACATGCAAAATAATAACAAGC [TGCATGCA_site392] | 10.1
18 | TAAAAAAATATTACATGTACATAAAATATATATATA [XGTACX_site4633] | 9.63
19 | CAATTATATAATTGAAGTACTAGGAAAGATATATAT [XGTACX_site5459] | 9.75
20 | CTTAAATTTTACTGAAGTACAAAATCGGTTCAATGA [XGTACX_site3292] | 9.36
21 | TATACATATTTTTTTTGTACATATATAATATATATA [XGTACX_site2399] | 9.56
22 | GGGAAAAAAAAAAGCACACATACGTAAATATATAAC [CACACA_site226] | 10.1
23 | AATTAAATTCGGTACTGTACATTTCAAAAATATACG [XGTACX_site48] | 9.51

Row | Sequence | gcPBM binding intensity (ln)
24 | AATACCATAATCAATGCACACATAACAAAATATTAT [CACACA_site8873] | 10.1
25 | TACGAAAAAAAAAAAAAAAAAAAAAAACACAAAAAA [CACACA_negctrl_site1643] | 9.3
26 | TTTTAATATTTTAAGAGTACAGAAATATATAATATG [XGTACX_site4955] | 9.33
27 | ATTTTATAACATTCATGTACACATTTCATTTATTTG [XGTACX_site3028] | 9.78
28 | CATATAAATATATATACACACACACCGTAATACATA [CACACA_site9158] | 10.8
29 | AGAGACACTTTTTATTGTACAAGAGGAGGTTACCTT [XGTACX_site8768] | 9.6
30 | TTTTTATATTTTATAGTGCAAAAACTTACATAAAAT | 9.54
31 | ATATAATGGACCATAGTGCATAAAAATAACAAAAAA [GTGCAC_site9558] | 9.84
32 | TATTTTTTTTCTTTATTTATAACGCTCAATATATTC [GTGCAC_negctrl_site265] | 9.64
33 | TGGAAATATATATATATATATACATATATATATAGC [XGTACX_negctrl_site107] | 9.54
34 | TATGAAGAAAAGAATTGTACGATGTTTATTTTGTAT [XGTACX_site8614] | 9.59
35 | TGTTAATAGAAATACGTGCACACTAAAGGGAAAACA [CACACA_site1485] | 9.88
36 | TTGTTATCTACCTGTAGTACATATATTATGTAATAT [XGTACX_site735] | 9.71
37 | TAAATATATATATACACACACACCAAAGCAATAGAT [CACACA_site2940] | 10.6
38 | ATTAAATATGTCAAGTGTACAAAATGTAAAAAAAAA [XGTACX_site4119] | 10.1
39 | TTATATATACCTAAGACACACACATATATATATATA [CACACA_site8153] | 10.2
40 | GCCATTGTACCATCCACACACATATAAATATGTATA [CACACA_site7303] | 10
41 | TATATAACATATAACACACATACTTAGTATTACATA [CACACA_site3099] | 9.8
42 | ACAGTATCAATATGGATAAAAATGTCCATATGCCTG [TGCATGCA_negctrl_site482] | 9.6
43 | CTATATCATTTTCTAGCACACACATTGTTATTACCT [CACACA_site8204] | 10.2
44 | GAATATAAACCTATTACACACATCTATATGTACATT [CACACA_site1914] | 10.1
45 | TTTTTTATGCTAACTTCTTTTTCCTTATAAAATTGG [TGCATGCA_negctrl_site598] | 9.46
46 | ATTTTTTTTATTATTACACACATATAACAAAAAAAT [CACACA_site6934] | 9.63

Row | Sequence | gcPBM binding intensity (ln)
47 | TTTTTATATTTCAACATATCACAATTTTATATATCT [CACACA_negctrl_site178] | 9.7
48 | ATATATATATTATATGCACACTTATATTTCATTAGA [CACACA_site5439] | 9.65
49 | TATTTATAAATGAACACACACGCAATTTGAATCGAA [CACACA_site3371] | 10.3
50 | AACACATACAGATATGCACACATTTTATTCCATTAT [CACACA_site5565] | 9.97
51 | TAAATATTAACAATCGCACACATATTATTTTTCCAA [CACACA_site1626] | 9.79
52 | AAGGTAAACAGACACACACACATACAAAAAAAAAAA [CACACA_site3768] | 10.8
53 | GAATATATATTCATATGTACACAATTTATGTATTAT [XGTACX_site4719] | 9.78
54 | AAAAAGAAAAAATATATTCGTCTATTATAAACAATA [CACACA_negctrl_site648] | 9.34
55 | ATAATTCTTTTACTGTGTACATATTATCACTTATTT [XGTACX_site2456] | 9.94
56 | CATTATGTTGTAAATACACACATACAGATACATACA [CACACA_site4565] | 9.94
57 | TAAAGGCAAACAAACACACACACATAAATACAGATA [CACACA_site5204] | 10.7
58 | ATATGCGTTTGCAAATGTACATATTATTTATATATA [XGTACX_site7128] | 9.61
59 | TTTTTTGGTTTTCATGCACACAATTTATAAATCTAT [CACACA_site3106] | 9.96
60 | TTTTGTTTTTGTAGAGTGCATAAAGAAGATATGTAT | 9.39
61 | TGGAAACAATGACACACACACAAAAAAAAAAAAAAA [CACACA_site7494] | 10.3
62 | ATAATAATATTTCTATGTACTTATTTTATGTATTAG [XGTACX_site1747] | 9.69
63 | TATAAATACTTAGAAACACACAAAAATATTTTATAA [CACACA_site7259] | 9.71
64 | AAAAATTAAAATATAACTAATTAATTTGTATTCATT [CACACA_negctrl_site1633] | 9.48
65 | GTAGGGGAAAAAAAAACACACAAAAAACAACAGATC [CACACA_site1187] | 10.2
66 | TTATCTCTACAAAGTGCACACACGTAAAAACATATA [CACACA_site3957] | 9.83
67 | TGTAATTGTTTAAAGGGTACATATATCAGATGTCTT [XGTACX_site5877] | 9.44
68 | TTAGTAAATACATTTGCACACATTATTTTTTAACAT [CACACA_site5448] | 9.91
69 | ATTTATTTATTTATATGTACTTAAATGAAAGGAATA [XGTACX_site6024] | 9.35

Row | Sequence | gcPBM binding intensity (ln)
70 | TTTCAAAATTTTTATTTTAAATAAACATTTATAAAA [CACACA_negctrl_site1588] | 9.33
71 | ACATACATTTTTAAATGTACATATATATATATATAT [XGTACX_site6751] | 9.99
72 | CCGATATAATGGAAAACACACAAAAGATATATATAT [CACACA_site2683] | 10.1
73 | ATATGGCACATATGTACACACGTATAGATAATATTA [CACACA_site5162] | 9.91
74 | AATATTATATGGACGTGTCCACATAAACCTATATAT [XGTACX_site2053] | 9.64
75 | GGAAATATAAAATCATGTACATATGTATATATAATT [XGTACX_site5491] | 9.93
76 | TATATATTTTTTTCATGTACTTATTATATATATATA [XGTACX_site5321] | 9.78
77 | ATGAATATATATATTTGTACATATGTATATATATAT [XGTACX_site7527] | 9.66
78 | AGTATAGATGTATACACACACCAAACGTTAAAAAAA [CACACA_site7443] | 10.2
79 | AAATACAAAATTGTTACACACATATTAATTATGACA [CACACA_site476] | 9.75
80 | TATCATCATGTATGTACACACATACAGATATTATGT [CACACA_site4888] | 10.2
81 | TATATTTTAAAATTATGTACATATATAGATAAATGT [XGTACX_site1349] | 9.56
82 | ATATAAATATAGTGTGCACACACATAATATATATAT [CACACA_site8713] | 10.4
83 | ATATATATATATAATACACACATCATAAAATATGTA [CACACA_site2518] | 9.79
84 | AAAATAAATTGTGAAGGTACACAAATTATTATGTGG [XGTACX_site4196] | 9.7
85 | TCGATATATAGACACACACACTTTTAATAATTAAAT [CACACA_site7726] | 10.4
86 | TACAAACAGACATATACACACAAAAAAAAAATAAAA [CACACA_site2562] | 9.89
87 | TTATGCAGATAAAAGAGTACATATTCGTTACATACA [XGTACX_site2849] | 9.6
88 | AATCATATTTAGATTACACACAGTTTAAATATTTTA [CACACA_site1263] | 9.66
89 | TATATATATATATATATATATATATATATAATATTA [XGTACX_negctrl_site558] | 9.29
